# Laboratory results as given in the supplement of paper PMC7826260.
# This is one part of the list. Cleavage of a single-stranded DNA pool by Rep nickase domains was read by sequencing (1 h at 37 °C, 3 µM enzyme); the outer parts of the 90-letter strands are left off. Values are log2 of uncut reads against the no-enzyme pool; uncut sequences lie near 0, cut ones below; no hit call is given. Reads are scaled to the total; where an enzyme cuts many sequences, the uncut ones exceed 0.
# Tests used:
# Test in all cases: uncleaved DNA left, log2 of reads against the no-enzyme library (log2 ratio); higher = less cleavage (more negative = more Rep cleavage of the k-mer); sequences stand for … in CTCGTCCG…ACCGGAGA
# [1] = system: T1, Rep nickase domain of Muscovy duck circovirus
# T1 sequence (residues 1-111 of Rep, tag left off): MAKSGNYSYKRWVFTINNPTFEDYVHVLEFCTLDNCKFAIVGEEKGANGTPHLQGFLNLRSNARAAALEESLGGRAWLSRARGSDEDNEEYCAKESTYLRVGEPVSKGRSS
# Method: (§1)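 A pool of 90-nt single-stranded DNAs with seven random bases just before the constant AC of the nick site (name = the seven bases) was cut by 3 µM recombinant His6-SUMO-tagged Rep nickase domain (300 nM DNA, 50 mM HEPES pH 8.0, 50 mM NaCl, 1 mM MnCl2, 1 h, 37 °C, three replicates). Uncut DNA was amplified and sequenced.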
# [2] = system: T2, Rep nickase domain of banana bunchy top virus
# T2 sequence (residues 1-94 of Rep, tag left off): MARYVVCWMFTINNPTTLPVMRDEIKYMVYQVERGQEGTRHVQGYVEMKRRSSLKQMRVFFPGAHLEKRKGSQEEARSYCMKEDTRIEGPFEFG
# Method: as §1
# [3] = system: T3, Rep nickase domain of cabbage leaf curl virus
# T3 sequence (residues 1-116 of Rep, tag left off): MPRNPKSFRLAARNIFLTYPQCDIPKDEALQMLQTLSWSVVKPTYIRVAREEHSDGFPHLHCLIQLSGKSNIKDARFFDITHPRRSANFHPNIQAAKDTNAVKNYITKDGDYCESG
# Method: as §1
# [4] = system: T4, Rep nickase domain of chickpea chlorotic dwarf virus
# T4 sequence (residues 1-124 of Rep, tag left off): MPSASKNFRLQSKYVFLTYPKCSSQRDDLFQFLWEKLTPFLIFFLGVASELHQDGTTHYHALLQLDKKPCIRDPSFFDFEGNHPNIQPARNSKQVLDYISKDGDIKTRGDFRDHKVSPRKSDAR
# Method: as §1
# [5] = system: T5, Rep nickase domain of faba bean necrotic yellows virus
# T5 sequence (residues 1-98 of Rep, tag left off): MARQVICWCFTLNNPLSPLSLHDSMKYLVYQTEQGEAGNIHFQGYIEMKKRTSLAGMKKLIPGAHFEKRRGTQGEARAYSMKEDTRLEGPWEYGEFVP
# Method: as §1
# [6] = system: T6, Rep nickase domain of maize striate mosaic virus
# T6 sequence (residues 1-117 of Rep, tag left off): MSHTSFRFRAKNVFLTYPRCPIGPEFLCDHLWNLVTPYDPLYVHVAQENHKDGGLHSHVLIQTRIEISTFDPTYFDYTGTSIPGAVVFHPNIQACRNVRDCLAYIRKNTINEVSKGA
# Method: as §1
# [7] = system: T7, Rep nickase domain of porcine circovirus 2
# T7 sequence (residues 2-116 of Rep, tag left off): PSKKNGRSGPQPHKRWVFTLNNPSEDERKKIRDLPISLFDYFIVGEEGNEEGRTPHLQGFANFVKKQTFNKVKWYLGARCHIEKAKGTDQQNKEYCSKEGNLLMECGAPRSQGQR
# Method: as §1
# [8] = system: T8, Rep nickase domain of tomato golden mosaic virus
# T8 sequence (residues 1-124 of Rep, tag left off): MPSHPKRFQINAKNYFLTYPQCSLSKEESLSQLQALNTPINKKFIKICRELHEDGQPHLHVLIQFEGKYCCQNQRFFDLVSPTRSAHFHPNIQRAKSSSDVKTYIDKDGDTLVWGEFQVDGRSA
# Method: as §1
# [9] = system: T9, Rep nickase domain of tomato yellow leaf curl virus
# T9 sequence (residues 1-136 of Rep, tag left off): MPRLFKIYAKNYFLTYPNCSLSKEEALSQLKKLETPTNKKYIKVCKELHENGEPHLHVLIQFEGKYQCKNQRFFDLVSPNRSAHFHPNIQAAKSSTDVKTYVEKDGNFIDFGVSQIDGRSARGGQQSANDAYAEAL
# Method: as §1
# [10] = system: T10, Rep nickase domain of wheat dwarf virus
# T10 sequence (residues 1-137 of Rep, tag left off): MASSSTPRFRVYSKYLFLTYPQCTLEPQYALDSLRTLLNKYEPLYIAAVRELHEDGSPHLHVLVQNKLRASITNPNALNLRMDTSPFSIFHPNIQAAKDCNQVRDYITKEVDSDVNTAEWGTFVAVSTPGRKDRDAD
# Method: as §1
Sequence,uncleaved DNA left (log2) [1],uncleaved DNA left (log2) [2],uncleaved DNA left (log2) [3],uncleaved DNA left (log2) [4],uncleaved DNA left (log2) [5],uncleaved DNA left (log2) [6],uncleaved DNA left (log2) [7],uncleaved DNA left (log2) [8],uncleaved DNA left (log2) [9],uncleaved DNA left (log2) [10]
GAGACTC,0.03,0.0115,0.66,1.88,0.146,2.12,0.174,0.0836,0.0736,0.242
TGCGCCA,-0.0464,0.00419,-0.154,-0.374,0.0555,-0.234,-0.0751,-0.0447,-0.0394,-0.0572
AATATCC,-0.0157,-0.0129,-0.0296,-0.0416,0.0405,-0.276,-0.0239,-0.108,0.0161,0.0605
GATAGTC,0.149,0.0176,0.309,0.559,0.085,0.367,0.151,0.0754,0.14,0.0305
TACACAT,0.0835,-0.0182,-0.517,-2.32,-0.0506,-0.312,-0.37,-0.011,-0.0272,0.0667
TGTCAAC,0.103,0.21,0.533,0.602,0.094,1.48,0.123,0.156,0.107,0.131
CGGCATC,0.00988,0.0177,0.423,1.17,-0.0322,1.26,-0.0188,-0.283,-0.0862,0.0139
CGCCGAA,0.00765,-0.119,-0.0555,-0.141,0.112,-0.389,0.00796,-0.159,-0.109,-0.0593
GAAGGGA,0.136,0.0702,0.372,0.915,0.0881,0.869,0.119,0.122,0.0865,0.0727
GCCTCCG,-0.0821,-0.127,-0.668,-0.473,-0.0658,-0.89,0.0214,-0.0753,0.0132,-0.229
CCCTTTC,0.0612,-0.0592,0.309,0.0409,0.078,-0.358,-0.0319,-0.0292,0.0499,0.0611
CACACGG,0.176,0.143,0.522,1.35,-0.0263,1.45,0.214,0.14,0.0395,0.15
TGGAGCA,0.0152,-0.0391,0.314,0.56,-0.0857,0.354,-1.19,-0.145,-0.0853,0.0216
GATCAAT,0.203,0.249,0.522,0.906,0.085,1.5,-0.0841,0.167,0.253,0.341
CTACGCT,0.082,-0.0126,-0.827,-2.34,0.0415,-0.936,-0.192,0.0139,0.0766,-0.356
CCCGCCC,-0.0797,-0.13,0.15,-0.296,0.00845,-0.204,-0.168,0.0332,-0.0265,-0.123
CTAGTGT,-0.00395,0.0437,-0.153,-0.439,0.0102,-0.615,-0.0425,-0.0158,0.106,-0.0305
TAGGTAT,0.145,0.0422,0.256,0.721,-0.0327,1.65,-0.718,0.0643,-0.0748,0.00326
ATAATTC,-0.0898,-0.215,0.24,-0.22,-0.127,-1.03,0.0522,-0.0648,-0.198,-0.0776
ACGAAGG,-0.0719,-0.0401,-0.525,-0.257,0.0394,-0.933,0.124,0.039,0.0508,-0.0988
CCAGTGT,0.0242,-0.0874,-0.347,-0.61,-0.0876,-0.914,-0.0549,-0.00612,-0.112,-0.183
GATAAGT,-0.0121,0.111,0.127,-0.0332,0.129,-0.381,-0.34,0.0376,0.104,0.013
AACCAGT,0.052,-0.086,-0.403,-1.59,-0.0282,-1.05,-1.03,-0.0349,0.0141,-0.0154
CATTGAA,-0.0389,-0.304,-0.525,-0.765,0.0857,-1.2,-0.521,0.00391,0.101,-0.055
GTGGGAG,0.0053,-0.0855,0.335,0.766,-0.0408,0.356,0.141,0.172,0.174,0.0422
CCATCAA,-0.00811,0.187,0.204,0.431,0.083,-0.454,0.0927,0.02,0.0122,0.191
TTGTTTG,-0.0892,-0.0209,-0.502,-0.727,0.106,-1.07,0.045,-0.0178,-0.0625,-0.0121
GAACCAT,0.0233,0.099,0.691,0.864,-0.0155,1.95,0.172,0.0494,0.111,0.206
ACGTTCT,-0.764,-0.156,-0.37,-2.27,-0.107,-0.72,-2.75,0.00126,-0.153,-0.0367
AGTCTTG,0.142,0.185,-0.0557,-1.79,0.16,0.153,0.00576,0.176,0.0714,0.0587
